Test results taken from PubChem BioAssay AID540317 (National Center for Advancing Translational Sciences (NCATS), 2011).
Hit rate of the full screen: of about 390,000 compounds, about 2,200 (0.56%) were called active. Inconclusive means that the source gave no clear call. Such entries were picked first, then a sample of the others. The call rests on the fitted dose curve; in most records, active means well fitted inhibition curve with a large enough effect; inconclusive means small, poorly fitted or top-dose-only effect; inactive means no such curve, though single readings can be large or run the other way. Potencies of inconclusive entries are doubtful fits and often do not repeat.

target: Chromobox protein homolog 1 (Homo sapiens) (UniProt P83916); test: HTS for Inhibitors of HP1-beta Chromodomain Interactions with Methylated Histone Tails; settings: AlphaScreen HP1-beta / biotin-H3K9me3 peptide binding; series mostly up to 114 µM; activity change, negative = inhibition: at the top concentration; further: nearly all actives have a fitted effect of over 70% in size
Procedure, shortened: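 AlphaScreen: HP1-beta (50 nM) preformed 30 min with biotin-H3(1-18)K9me3 peptide (50 nM) in PBS pH 7.4, 0.01% Tween-20. Compound added for 30 min at RT, then streptavidin donor/nickel chelate acceptor beads (10 ug/mL) for 30 min.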
Potency means the concentration at half of the fitted maximal effect; tags describe the fitted curve by direction and shape.

UniProt P83916, sequence (P83916 whole entry, looked up): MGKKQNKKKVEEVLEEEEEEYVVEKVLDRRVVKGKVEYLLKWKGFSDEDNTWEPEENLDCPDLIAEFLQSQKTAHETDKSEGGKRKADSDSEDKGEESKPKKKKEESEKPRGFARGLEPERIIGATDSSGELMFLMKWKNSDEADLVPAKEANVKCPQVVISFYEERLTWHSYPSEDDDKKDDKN

Row | SMILES | activity change, negative = inhibition | Potency
1 | CCOC(=O)C1(Cc2ccccc2)CCN(Cc2cc(OC)c3c(c2)OCO3)CC1 | inactive: 21.7% | 
2 | COc1ccc(Nc2cc(C)c3cc([N+](=O)[O-])ccc3n2)cc1 |  | inconclusive: 44.7 µM [inhibitor, partial curve, poor fit]
3 | CC1CC(=O)c2c(cc3c(-c4c(O)cc(O)c5c(O)c6c(cc45)OC(C)CC6=O)c(O)cc(O)c3c2O)O1 (centres undefined) |  | inconclusive: 28.2 µM [inhibitor, full curve]
4 | COc1ccc(CN2CCN(C(=O)CC(C)C)CC2)cc1OC |  | inconclusive: 17.8 µM [inhibitor, partial curve, poor fit]
5 | CC1(C)CC(N(Cc2ccc(F)cc2)C(=O)c2ccc(F)cc2)CCO1 (centres undefined) | inactive: 29.8% | 
6 | O=C1NC(=S)N(C(=O)c2ccc(F)cc2)/C1=C/c1ccccc1 | inactive: -35.4% | 
7 | COc1ccc(C)cc1NCC(=O)Nc1ccc(C(C)(C)C)cc1 |  | inconclusive: 15.8 µM [inhibitor, full curve, poor fit]
8 | CCN(Cc1ccccc1)C(=O)C1CCN(Cc2sccc2C)CC1 |  | inconclusive: 20 µM [inhibitor, full curve, poor fit]
9 | COc1cc(CNc2ccc(C)c(C)c2)cc(OC)c1OC |  | inconclusive: 31.6 µM [inhibitor, single point]
10 | CC(=O)c1cccc(NC(=O)CN(C)Cc2ccc(OC(F)F)cc2)c1 |  | inconclusive: 35.5 µM [inhibitor, partial curve]
11 | Cc1ccc(N=Cc2c(O)n(-c3ccc4c(c3)OCO4)c(=O)c3ccccc23)cc1 | inactive: 8.03% | 
12 | CCc1nn(CCCC(=O)NCc2ccc(OC)c(OC)c2)c(=O)c2cc3occc3n12 | inactive: 30% | 
13 | CCN(CCCNC(=O)c1ccc(Sc2ccc(Cl)cc2)c(NC(C)=O)c1)c1cccc(C)c1 |  | inconclusive: 28.2 µM [inhibitor, partial curve, poor fit]
14 | Cc1nn2c(=O)cc(COC(=O)c3ccc(S(=O)(=O)N4CCCCC4)cc3)nc2s1 | inactive: 27.8% | 
15 | Cc1cc(O)c2c(c1)CC1C3CCC4CC(=O)CCC4(C)C3CC(=O)C21C (centres undefined) | inactive: 23.2% | 
16 | O=C(O)c1ccc(-c2noc(-c3ccccc3Cl)n2)cc1 |  | inconclusive: 25.1 µM [inhibitor, single point]
17 | CCOC(=O)c1ccc(NS(=O)(=O)c2ccc3[nH]c(=O)[nH]c3c2)cc1 | inactive: -25.8% | 
18 | COc1cc(CNc2ccc(CNc3ncn[nH]3)cc2)cc(Cl)c1OCc1ccccc1 |  | inconclusive: 22.4 µM [inhibitor, partial curve, poor fit]
19 | Cc1ccc2c(c1)C(=O)C(=O)N2CCCOc1ccccc1C |  | inconclusive: 14.1 µM [inhibitor, full curve]
20 | CCN1CCN(c2ccc(S(=O)(=O)N3CCOCC3)cc2NC(=O)c2ccc(F)cc2Cl)CC1 | inactive: 43.6% | 
21 | CC1(C)CNc2cc(N)ccc2S1 |  | inconclusive: 44.7 µM [inhibitor, partial curve]
22 | O=C1C2C3C=CC(CO)(O3)C2C(=O)N1c1ccccc1-c1ccccc1 (centres undefined) |  | inconclusive: 63.1 µM [inhibitor, single point]

Row | SMILES | activity change, negative = inhibition | Potency
23 | Cc1ccc(C(=O)Nc2cccc(S(=O)(=O)N3CCCCC3)c2)cc1[N+](=O)[O-] | inactive: 21.9% | 
24 | COc1cccc(C(=O)Oc2cc3c4c(c2)C(C)=CC(C)(C)N4C(=O)C3=O)c1 |  | inconclusive: 3.55 µM [inhibitor, full curve, poor fit]
25 | CCc1ccc(OCC2c3cc(OC)c(OC)cc3CCN2C(=O)Cc2ccc(OC)c(OC)c2)cc1 (centres undefined) |  | inconclusive: 50.1 µM [inhibitor, partial curve, poor fit]
26 | Cn1c(-c2ccccc2)cnc1NCc1cccc([N+](=O)[O-])c1 |  | inconclusive: 20 µM [inhibitor, full curve]
27 | Cc1cccc(C)c1N/C=C/c1onc(C)c1[N+](=O)[O-] | inactive: 13.3% | 
28 | Cc1c(C(=O)N2CCC(C(N)=O)CC2)oc2ccc(Br)cc12 | inactive: -10.9% | 
29 | Cc1ccc(CN2CCN(/N=C/c3ccc(C)s3)CC2)c(C)c1 |  | inconclusive: 39.8 µM [inhibitor, partial curve, poor fit]
30 | COc1cccc(/C=N/N2CCN(Cc3ccccc3)CC2)c1O | inactive: -12% | 
31 | Clc1cccc(-c2ccc(C3Nc4cccc5cccc(c45)N3)o2)c1 |  | inconclusive: 10 µM [inhibitor, full curve]
32 | COC(=O)c1sc2cc([N+](=O)[O-])cc(SCC(C)C)c2c1N |  | inconclusive: 50.1 µM [inhibitor, partial curve, poor fit]
33 | COc1ccc(C(=O)CC(=O)c2ccccc2O)cc1 | inactive: 42.2% | 
34 | Cc1[nH]c2ccc(C(=O)N3CCN(C)CC3)cc2c1C |  | inconclusive: 31.6 µM [inhibitor, full curve]
35 | CC(C)OC(=O)C(C(=O)C(F)(F)F)c1cc(NS(=O)(=O)c2ccc3ccccc3c2)c2ccccc2c1O (centres undefined) |  | inconclusive: 17.8 µM [inhibitor, partial curve]
36 | COC(=O)c1ccc(N2CCS(=O)(=O)CC2)cc1 | inactive: 27.8% | 
37 | Cc1cc(=O)n(C(C)C(=O)NCc2ccccc2Cl)c2c1c(C)nn2-c1ccccc1 (centres undefined) | inactive: -5.76% | 
38 | CCCc1cc(C(=O)N/N=C/c2cccn2C)cs1 |  | inconclusive: 56.2 µM [inhibitor, single point]
39 | CCc1ccc(C2N3CC4(C)CN2CC(c2ccccc2)(C3)C4=O)cc1 (centres undefined) | inactive: 45.3% | 
40 | Cc1ccc(/C=C2/SC(=S)N(c3ccc(S(=O)(=O)Nc4nccs4)cc3)C2=O)cc1 |  | inconclusive: 25.1 µM [inhibitor, full curve, poor fit]
41 | CC(=O)NC1C(c2nc3ccccc3s2)=C(c2ccccc2)C(=O)N1c1ccc(C)cc1 (centres undefined) |  | inconclusive: 3.55 µM [inhibitor, full curve, poor fit]
42 | O=[N+]([O-])c1nn(-c2ccc3c(c2)OCCO3)n(O)c1=NC1CCCCCC1 |  | inconclusive: 25.1 µM [inhibitor, full curve, poor fit]
43 | CCOC(=O)c1cnc2c(C)cc(C)cc2c1Nc1ccc(N2CCOCC2)cc1 |  | inconclusive: 17.8 µM [inhibitor, full curve]
44 | COc1ccc(C(=O)N2CCN(Cc3cc(OC)c(O)c(OC)c3)CC2)cc1OC |  | inconclusive: 79.4 µM [inhibitor, partial curve]
